{
  "source": "PubChem BioAssay AID1745847",
  "about": "(National Center for Advancing Translational Sciences (NCATS), 2022)",
  "note": "The campaign covered roughly 2,100 compounds. About 670 (32%) were called active. The inconclusive results got no clear call from the source; some entries with a clear call stand among them for comparison. Calls come from the whole dose curve; as a rule, active = well fitted inhibition curve with a large enough effect; inconclusive = small, poorly fitted or top-dose-only effect; inactive = no such curve, though single readings can be large or run the other way. Where the call is inconclusive, the potency comes from a doubtful curve fit. % is set by controls: 0 for no effect and ±100 for the full control effect; potency is the fitted concentration of half-maximal effect; tags give direction and shape of the fitted curve.",
  "data": [
    {"assay": "CMV-Luciferase Counterscreen for Inhibitors of ATXN expression; note: nearly all actives have a fitted effect of over 55% in size", "conditions": "HEK-293 CMV-luciferase reporter, luminescence, 24 h; series mostly up to 57.5 µM; activity change, negative = inhibition: at the top concentration", "values": [
      {"smiles": "CCC(=O)NC(c1ccc(C)cc1)c1cc([N+](=O)[O-])c2cccnc2c1O", "note": "(stereo not drawn)", "Potency": "active: 7.08 µM"},
      {"smiles": "CC(C)=C1SC(N2CCN(c3ccc(C)c(Cl)c3)CC2)=NC1=O", "activity change, negative = inhibition": "inactive: 103% [at 11.4 µM]"},
      {"smiles": "C=CCN=c1scc(-c2ccc3c(c2)NC(=O)CO3)n1/N=C(\\C)c1ccccn1", "Potency": "inconclusive: 1.78 µM [inhibitor, full curve, poor fit]"},
      {"smiles": "CCc1ccc(OCC(=O)N/N=C(\\C)c2ccc(O)cc2O)cc1", "Potency": "inconclusive: 3.16 µM [inhibitor, partial curve, poor fit]"},
      {"smiles": "Cc1ccc(C(=O)O)cc1N1C(=O)c2cccc3c([N+](=O)[O-])ccc(c23)C1=O", "activity change, negative = inhibition": "inactive: 4.18%"},
      {"smiles": "CCOC(=O)/C(=C/c1ccc(N2CCC(c3ccccc3)=N2)cc1)C(C)=O", "Potency": "inconclusive: 2 µM [inhibitor, partial curve, poor fit]"},
      {"smiles": "C=CCc1cccc(/C=N/NC(=O)C[n+]2ccccc2)c1O", "Potency": "inconclusive: 10 µM [inhibitor, partial curve, poor fit]"},
      {"smiles": "CCN(Cc1ccccc1)S(=O)(=O)c1ccc(C(=O)Nc2nnc(C3CC3)o2)cc1", "Potency": "active: 2.24 µM"},
      {"smiles": "CC(C)CC(N)c1csc(NC(=O)Nc2ccccc2C(C)(C)C)n1", "note": "(stereo not drawn)", "Potency": "inconclusive: 5.01 µM [inhibitor, partial curve, poor fit]"},
      {"smiles": "O=C(c1ccc(C#Cc2ccccc2)o1)N1CCN(c2ccccn2)CC1", "Potency": "inconclusive: 39.8 µM [inhibitor, single point]"},
      {"smiles": "CCC(C)(C)c1ccc(OCCCC[n+]2ccc(C)cc2)c(C(C)(C)CC)c1", "Potency": "inconclusive: 3.16 µM [inhibitor, partial curve, poor fit]"},
      {"smiles": "Cc1ccnc(NC(=O)C2CCN(S(=O)(=O)c3c(C)c(C)cc(C)c3C)CC2)c1", "Potency": "inconclusive: 39.8 µM [inhibitor, single point]"},
      {"smiles": "COc1ccccc1-c1ccc2c(c1)C(C)(Cc1cccc(F)c1)C(=O)N2", "note": "(stereo not drawn)", "Potency": "active: 28.2 µM"},
      {"smiles": "COc1ccc(C(C)=O)cc1CC1(C)C(=O)Nc2ccc(-c3cccc(C(F)(F)F)c3)cc21", "note": "(stereo not drawn)", "Potency": "inconclusive: 31.6 µM [inhibitor, partial curve, poor fit]"},
      {"smiles": "O=C(NC(Nc1nc2ccc([N+](=O)[O-])cc2s1)(C(F)(F)F)C(F)(F)F)c1ccccc1", "Potency": "inconclusive: 0.1 µM [inhibitor, full curve, poor fit]"},
      {"smiles": "O=C(CNC(=O)c1cccc(Br)c1)N/N=C/c1cc(Br)cc(Br)c1O", "Potency": "inconclusive: 22.4 µM [inhibitor, partial curve, poor fit]"},
      {"smiles": "C[C@H]1O[C@@H](O[C@H]2[C@@H](O)C[C@H](O[C@H]3[C@@H](O)C[C@H](O[C@H]4CC[C@@]5(C)[C@H](CC[C@@H]6[C@@H]5C[C@@H](O)[C@]5(C)[C@@H](C7=CC(=O)OC7)CC[C@]65O)C4)O[C@@H]3C)O[C@@H]2C)C[C@H](O)[C@@H]1O", "activity change, negative = inhibition": "inactive: -12%"},
      {"smiles": "Cn1c(/C=C/c2ccc(Cl)cc2Cl)c([N+](=O)[O-])c(=O)n(C)c1=O", "Potency": "inconclusive: 2.51 µM [inhibitor, full curve, poor fit]"},
      {"smiles": "CCOC(=O)CSc1cccc2cccnc12", "Potency": "inconclusive: 25.1 µM [inhibitor, partial curve]"},
      {"smiles": "CCOc1ccc(/C=N/NC(=O)C(O)c2ccccc2)c(O)c1", "note": "(stereo not drawn)", "Potency": "inconclusive: 1.78 µM [inhibitor, partial curve, poor fit]"},
      {"smiles": "CN1C(=O)/C(=C/c2ccccc2F)Sc2ccc(C(=O)N3CCCC3)cc21", "Potency": "inconclusive: 20 µM [inhibitor, partial curve, poor fit]"},
      {"smiles": "COc1cc(C(=O)NC(=S)NNC(=O)c2cnccn2)cc(OC)c1OC", "Potency": "inconclusive: 7.08 µM [inhibitor, partial curve]"},
      {"smiles": "CC(C)(C)c1ccc(OCCn2nc(C(=O)O)c3ccccc3c2=O)cc1", "activity change, negative = inhibition": "inactive: -11.4%"},
      {"smiles": "CC(C)(C)c1nnc(N/N=C/c2ccccc2O)n(N)c1=O", "Potency": "active: 1.26 µM"},
      {"smiles": "Cc1ccccc1NC(=O)Nc1nc(C(N)C2CCCCC2)cs1", "note": "(stereo not drawn)", "activity change, negative = inhibition": "inactive: -17.1%"},
      {"smiles": "Cc1cccc(N2CCN(C(=O)CNC(=O)Cc3ccccc3)CC2)c1C", "Potency": "inconclusive: 3.16 µM [inhibitor, partial curve, poor fit]"},
      {"smiles": "Cc1cccc(NC(c2ccc(C)s2)c2ccc3ccc(C)nc3c2O)n1", "note": "(stereo not drawn)", "activity change, negative = inhibition": "inactive: 21.1%"},
      {"smiles": "O=C(CNC(=O)c1ccccc1O)N/N=C/c1cc(Br)ccc1OC(=O)/C=C/c1ccco1", "Potency": "inconclusive: 2.82 µM [inhibitor, partial curve, poor fit]"},
      {"smiles": "N#C/C(=C(/O)COC(=O)CSc1ccc(Cl)cc1)c1nc2ccccc2[nH]1", "Potency": "inconclusive: 22.4 µM [inhibitor, partial curve, poor fit]"},
      {"smiles": "O=c1cc(N2CCN(c3ccccc3)CC2)[nH]c(=O)n1C1CCCCC1", "activity change, negative = inhibition": "inactive: 100%"},
      {"smiles": "COc1cc(CC(=O)Nc2nc(-c3ccc(F)c(F)c3)cs2)cc(OC)c1OC", "Potency": "inconclusive: 7.94 µM [inhibitor, partial curve, poor fit]"},
      {"smiles": "CC1(C(=O)N/N=C/c2ccc([N+](=O)[O-])o2)CC1(Br)Br", "note": "(stereo not drawn)", "Potency": "inconclusive: 10 µM [inhibitor, partial curve]"},
      {"smiles": "CCCCOc1ccc(NC2=NC3(CCCC3)N=C(N)N2)cc1", "activity change, negative = inhibition": "inactive: -4.4%"},
      {"smiles": "Cc1cccc2sc(NNC(=O)c3ccc(S(=O)(=O)N4CC(C)CC(C)C4)cc3)nc12", "note": "(stereo not drawn)", "Potency": "inconclusive: 1.78 µM [inhibitor, full curve, poor fit]"},
      {"smiles": "CN(c1ccccc1)S(=O)(=O)c1cccc(NC(=O)c2cc(=O)c3ccccc3o2)c1", "Potency": "inconclusive: 11.2 µM [inhibitor, partial curve]"},
      {"smiles": "OC(CN1CCCCC1)Cn1c2ccc(Cl)cc2c2cc(Cl)ccc21", "note": "(stereo not drawn)", "Potency": "inconclusive: 8.91 µM [inhibitor, single point]"},
      {"smiles": "CC(Sc1ccc(Cl)cc1)C(=O)NNC(=O)c1ccccc1O", "note": "(stereo not drawn)", "Potency": "inconclusive: 2.82 µM [inhibitor, partial curve, poor fit]"},
      {"smiles": "CCOC(=O)/C=C/C(=O)Nc1ccc(Oc2ccccc2)cc1", "activity change, negative = inhibition": "inactive: -6.32% [at 11.4 µM]"},
      {"smiles": "CCN(CC)c1cc(C)c2cc(NC(=O)c3ccccc3OC)ccc2n1", "activity change, negative = inhibition": "inactive: -29.6%"},
      {"smiles": "COc1cc(/C=N/Nc2snc(SC)c2C#N)cc(OC)c1OC", "activity change, negative = inhibition": "inactive: 1.9%"},
      {"smiles": "Cc1nc2ccc(NC(=O)c3cccc(S(=O)(=O)N(C)c4ccccc4)c3)cc2s1", "Potency": "active: 3.55 µM"},
      {"smiles": "CC(=O)c1cc(CN2CCC(C(=O)Nc3cccc(-c4cscn4)c3)CC2)cs1", "Potency": "inconclusive: 11.2 µM [inhibitor, partial curve, poor fit]"},
      {"smiles": "CNc1ccc(Br)cc(C(=O)/C=C/c2ccc3c(c2)OCO3)c1=O", "activity change, negative = inhibition": "inactive: -5.4% [at 11.4 µM]"},
      {"smiles": "CCOc1ccc(NC(=O)Nc2nnc(CC(=O)NCc3ccccc3)s2)cc1", "activity change, negative = inhibition": "inactive: -1.51%"},
      {"smiles": "CCCCCn1c(CN2CCN(c3cccc(Cl)c3)CC2)nc2c1c(=O)[nH]c(=O)n2C", "Potency": "inconclusive: 31.6 µM [inhibitor, single point]"},
      {"smiles": "Nc1ccc(OC(=O)Nc2ccc(O)cc2)cc1", "Potency": "active: 12.6 µM"},
      {"smiles": "Cc1cccc(NC(=O)CCC(=O)N/N=C/c2ccc(O)cc2O)c1", "Potency": "inconclusive: 3.98 µM [inhibitor, single point]"},
      {"smiles": "NC(c1ccccc1)c1csc(NC(=O)Nc2ccccc2Oc2ccccc2)n1", "note": "(stereo not drawn)", "activity change, negative = inhibition": "inactive: -22.9% [at 11.4 µM]"},
      {"smiles": "Cc1ccc2sc(N(CCCN(C)C)C(=O)c3ccc(S(=O)(=O)N4CCCCCC4)cc3)nc2c1C", "Potency": "inconclusive: 28.2 µM [inhibitor, single point]"},
      {"smiles": "Cc1cccc(C2=NN(c3ccccc3)[C@H](CO)[C@H]2c2ccc(Cl)cc2)c1", "Potency": "inconclusive: 4.47 µM [inhibitor, single point]"},
      {"smiles": "Cc1ccc(NC(=O)/C=C/c2ccc(S(=O)(=O)N3CCOCC3)cc2)cc1S(=O)(=O)N(C)C", "Potency": "active: 2.51 µM"},
      {"smiles": "O=C(CSC1=NNC(c2ccccn2)S1)Nc1ccc(C(F)(F)F)cc1", "note": "(stereo not drawn)", "Potency": "inconclusive: 25.1 µM [inhibitor, partial curve, poor fit]"},
      {"smiles": "O=C(Nc1cccc(S(=O)(=O)c2cccc(NC(=O)c3ccco3)c2)c1)c1ccco1", "Potency": "inconclusive: 7.08 µM [inhibitor, partial curve, poor fit]"},
      {"smiles": "Cc1nc2ccccc2n1C1CCN(CC(=O)Nc2ccccc2Br)CC1", "Potency": "inconclusive: 3.55 µM [inhibitor, single point]"},
      {"smiles": "CCc1ccc(N2CC(C(=O)N/N=C/c3cc([N+](=O)[O-])ccc3O)CC2=O)cc1", "note": "(stereo not drawn)", "Potency": "active: 10 µM"},
      {"smiles": "NC(Cc1ccc(Cl)cc1)c1csc(Nc2cc(NCCCO)ncn2)n1", "note": "(stereo not drawn)", "activity change, negative = inhibition": "inactive: -12.1%"},
      {"smiles": "COc1cc(OC)c(OC)cc1/C=C1\\CC(C)C/C(=C\\c2cc(OC)c(OC)cc2OC)C1=O", "note": "(stereo not drawn)", "Potency": "inconclusive: 10 µM [inhibitor, partial curve, poor fit]"},
      {"smiles": "Cc1cnc(NC(=O)C2CC(=O)N(c3cccc(Cl)c3)C2)s1", "note": "(stereo not drawn)", "activity change, negative = inhibition": "inactive: 51.5% [at 11.4 µM]"},
      {"smiles": "COc1ccc(CC(N)c2csc(NC(=O)c3ccccc3OC)n2)cc1", "note": "(stereo not drawn)", "activity change, negative = inhibition": "inactive: -21.7%"},
      {"smiles": "COc1ccc(OC)c(NC(=O)COC(=O)c2c3c(nc4ccccc24)CCCC3)c1", "Potency": "inconclusive: 5.01 µM [inhibitor, single point]"},
      {"smiles": "CC(=NNC(=O)c1ccncc1)c1ccccc1O", "Potency": "inconclusive: 3.55 µM [inhibitor, full curve]"},
      {"smiles": "C/C(=N\\NC(=O)C12CCC(C)(C(=O)O1)C2(C)C)c1ccccc1O", "note": "(stereo not drawn)", "Potency": "inconclusive: 3.16 µM [inhibitor, partial curve, poor fit]"},
      {"smiles": "FC(F)(F)c1nc(-c2cccs2)ncc1-c1nnnn1-c1ccc(Cl)cc1", "Potency": "inconclusive: 11.2 µM [inhibitor, partial curve, poor fit]"}
    ]}
  ]
}
